The record followed here is the supplement of paper PMC7125110.

± gives the standard error. Variants at the floor of the assay are shown more often than the library holds them. Some results are limits rather than exact numbers.

B1: glmS ribozyme (parent)
chain: AUAAAAGCGCCAGAACUACAGAAAUGUAGUUGACGAGGAGGAGGUUUAUCGAAUUUUCGGCGGAUGCCUCCAAA

Holding throughout (settings): with glucosamine-6-phosphate
Variants of B1 are the subject of data set [1]. The experiment in a line: self-cleavage kobs at 40 uM GlcN6P; higher = faster cleavage; RNA array. In outline: (§1)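 Barcoded glmS ribozyme variants on sequenced MiSeq chips were transcribed in situ by E. coli RNA polymerase and tracked through a hybridised Cy3 probe at 37 °C. Glucosamine-6-phosphate (40 μM to 10 mM) in HEPES/KCl/Mg(OAc)2 buffer was flowed in, and tiles were imaged over ~14 h. Signals were normalised to baseline and to non-cleaving reference variants; per-tile medians were fit to one- or two-exponential decays to give kobs. kcat and KM came from weighted Michaelis–Menten fits across concentrations.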

Variants of B1 are the subject of data set [2]. Nature of the data set: self-cleavage kobs at 160 uM GlcN6P; higher = faster cleavage; RNA array. In outline: as §1
Variants of B1 are the subject of data set [3]. Nature of the data set: self-cleavage kobs at 10000 uM GlcN6P; higher = faster cleavage; RNA array. The essentials: as §1
In data set [4] the parent is B1. The experiment in a line: self-cleavage kobs at 2500 uM GlcN6P; higher = faster cleavage; RNA array. The essentials: as §1
In data set [5] the parent is B1. Nature of the data set: self-cleavage kobs at 640 uM GlcN6P; higher = faster cleavage; RNA array. The essentials: as §1

Regarding C11U U57C, in the data set with glucosamine-6-phosphate [1], the “self-cleavage kobs at 40 uM GlcN6P” value is less than 1e-05 s⁻¹. In addition, in the data set with glucosamine-6-phosphate [2], the “self-cleavage kobs at 160 uM GlcN6P” value was less than 1e-05 s⁻¹. In the data set with glucosamine-6-phosphate [3], the “self-cleavage kobs at 10000 uM GlcN6P” value stood at 5.06e-05 ± 1.6e-05 s⁻¹.

With G13U G51A A52U, the “self-cleavage kobs at 40 uM GlcN6P” value with glucosamine-6-phosphate [1] was less than 1e-05 s⁻¹. The same measure, in the same setting: the result for A14G G37U reads less than 1e-05 s⁻¹; that for A12C G29U C67U C71A, less than 1e-05 s⁻¹; that for A14G U46C U54C G63C, less than 1e-05 s⁻¹. In the case of A15G C50U G60A A64C, the “self-cleavage kobs at 40 uM GlcN6P” value in the data set with glucosamine-6-phosphate [1] was less than 1e-05 s⁻¹. Still for that read-out and setting: the result for C16U U30A G40A reads less than 1e-05 s⁻¹. Turning to A12G A53G G60U, the “self-cleavage kobs at 40 uM GlcN6P” value with glucosamine-6-phosphate [1] was less than 1e-05 s⁻¹. In the data set with glucosamine-6-phosphate [4], the “self-cleavage kobs at 2500 uM GlcN6P” value is less than 1e-05 s⁻¹. In addition, in the data set with glucosamine-6-phosphate [3], the “self-cleavage kobs at 10000 uM GlcN6P” value is less than 1e-05 s⁻¹. Turning to A12C A42C, the “self-cleavage kobs at 40 uM GlcN6P” value with glucosamine-6-phosphate [1] is less than 1e-05 s⁻¹. Moreover, the “self-cleavage kobs at 640 uM GlcN6P” value with glucosamine-6-phosphate [5] was less than 1e-05 s⁻¹. Consider A14C U49G U55C, for which the “self-cleavage kobs at 40 uM GlcN6P” value with glucosamine-6-phosphate [1] is less than 1e-05 s⁻¹.

Consider A12G G38A G66U, for which the “self-cleavage kobs at 40 uM GlcN6P” value with glucosamine-6-phosphate [1] was less than 1e-05 s⁻¹. Moreover, the “self-cleavage kobs at 640 uM GlcN6P” value in the data set with glucosamine-6-phosphate [5] is less than 1e-05 s⁻¹. For the same variant, in the data set with glucosamine-6-phosphate [2], the “self-cleavage kobs at 160 uM GlcN6P” value was less than 1e-05 s⁻¹. Besides, in the data set with glucosamine-6-phosphate [3], the “self-cleavage kobs at 10000 uM GlcN6P” value was less than 1e-05 s⁻¹. For the variant A14U A64C, the “self-cleavage kobs at 40 uM GlcN6P” value with glucosamine-6-phosphate [1] is less than 1e-05 s⁻¹. With C11U C34U G35U U49C G60U, the “self-cleavage kobs at 40 uM GlcN6P” value with glucosamine-6-phosphate [1] is less than 1e-05 s⁻¹. Moreover, the “self-cleavage kobs at 640 uM GlcN6P” value in the data set with glucosamine-6-phosphate [5] was less than 1e-05 s⁻¹.

In the case of G13U A53C U69A, the “self-cleavage kobs at 40 uM GlcN6P” value in the data set with glucosamine-6-phosphate [1] was less than 1e-05 s⁻¹. The same measure, in the same setting: the result for A12C U46A A64C reads less than 1e-05 s⁻¹. For G13C G62A, the “self-cleavage kobs at 40 uM GlcN6P” value in the data set with glucosamine-6-phosphate [1] was less than 1e-05 s⁻¹. Moreover, the “self-cleavage kobs at 2500 uM GlcN6P” value with glucosamine-6-phosphate [4] is less than 1e-05 s⁻¹.

Take G13C G62C: in the data set with glucosamine-6-phosphate [1], the “self-cleavage kobs at 40 uM GlcN6P” value was less than 1e-05 s⁻¹. Also, the “self-cleavage kobs at 640 uM GlcN6P” value in the data set with glucosamine-6-phosphate [5] is less than 1e-05 s⁻¹. For the same variant, in the data set with glucosamine-6-phosphate [2], the “self-cleavage kobs at 160 uM GlcN6P” value was less than 1e-05 s⁻¹. For the same variant, the “self-cleavage kobs at 10000 uM GlcN6P” value with glucosamine-6-phosphate [3] was less than 1e-05 s⁻¹. Take G29A C61G: the “self-cleavage kobs at 40 uM GlcN6P” value with glucosamine-6-phosphate [1] is less than 1e-05 s⁻¹. The “self-cleavage kobs at 10000 uM GlcN6P” value in the data set with glucosamine-6-phosphate [3] is less than 1e-05 s⁻¹.

For the variant C11U G32U, the “self-cleavage kobs at 40 uM GlcN6P” value with glucosamine-6-phosphate [1] is less than 1e-05 s⁻¹. Further, the “self-cleavage kobs at 10000 uM GlcN6P” value with glucosamine-6-phosphate [3] worked out at 3.94e-05 ± 5.4e-06 s⁻¹. On to A15U A52C G59A C70A, for which the “self-cleavage kobs at 40 uM GlcN6P” value in the data set with glucosamine-6-phosphate [1] was less than 1e-05 s⁻¹. Regarding A12U A36U, the “self-cleavage kobs at 40 uM GlcN6P” value with glucosamine-6-phosphate [1] was less than 1e-05 s⁻¹. For the variant A15C G41C, in the data set with glucosamine-6-phosphate [1], the “self-cleavage kobs at 40 uM GlcN6P” value is less than 1e-05 s⁻¹. Besides, in the data set with glucosamine-6-phosphate [3], the “self-cleavage kobs at 10000 uM GlcN6P” value was determined as 2.79e-05 ± 1.2e-05 s⁻¹.

Regarding A14C C34U A36C U54A U65G, the “self-cleavage kobs at 40 uM GlcN6P” value with glucosamine-6-phosphate [1] is less than 1e-05 s⁻¹. In addition, the “self-cleavage kobs at 160 uM GlcN6P” value in the data set with glucosamine-6-phosphate [2] was less than 1e-05 s⁻¹. Also, the “self-cleavage kobs at 2500 uM GlcN6P” value with glucosamine-6-phosphate [4] is less than 1e-05 s⁻¹. With A12C G13A C16A A42U C61U, the “self-cleavage kobs at 40 uM GlcN6P” value with glucosamine-6-phosphate [1] was less than 1e-05 s⁻¹. The “self-cleavage kobs at 10000 uM GlcN6P” value with glucosamine-6-phosphate [3] was less than 1e-05 s⁻¹. In the case of C16U G41U G51A, the “self-cleavage kobs at 40 uM GlcN6P” value with glucosamine-6-phosphate [1] was less than 1e-05 s⁻¹. A12U U30G U56G: the “self-cleavage kobs at 40 uM GlcN6P” value in the data set with glucosamine-6-phosphate [1] was 0.000609 ± 0.00013 s⁻¹. Moreover, the “self-cleavage kobs at 10000 uM GlcN6P” value with glucosamine-6-phosphate [3] came out at 0.0339 ± 0.0098 s⁻¹. Regarding G13A A33G U54G, the “self-cleavage kobs at 40 uM GlcN6P” value with glucosamine-6-phosphate [1] was less than 1e-05 s⁻¹. For the same variant, the “self-cleavage kobs at 640 uM GlcN6P” value with glucosamine-6-phosphate [5] is less than 1e-05 s⁻¹. The “self-cleavage kobs at 10000 uM GlcN6P” value with glucosamine-6-phosphate [3] was less than 1e-05 s⁻¹.

For the variant A12U U49A, the “self-cleavage kobs at 40 uM GlcN6P” value with glucosamine-6-phosphate [1] was less than 1e-05 s⁻¹. Also, the “self-cleavage kobs at 160 uM GlcN6P” value in the data set with glucosamine-6-phosphate [2] was less than 1e-05 s⁻¹. Turning to A14C A33U A53U U56G, the “self-cleavage kobs at 40 uM GlcN6P” value in the data set with glucosamine-6-phosphate [1] was less than 1e-05 s⁻¹.

For the variant C11U C61U, the “self-cleavage kobs at 40 uM GlcN6P” value in the data set with glucosamine-6-phosphate [1] is less than 1e-05 s⁻¹. Besides, the “self-cleavage kobs at 640 uM GlcN6P” value with glucosamine-6-phosphate [5] was less than 1e-05 s⁻¹. In addition, the “self-cleavage kobs at 10000 uM GlcN6P” value in the data set with glucosamine-6-phosphate [3] is less than 1e-05 s⁻¹. Turning to A14G A39G G44C C68U, the “self-cleavage kobs at 40 uM GlcN6P” value in the data set with glucosamine-6-phosphate [1] is less than 1e-05 s⁻¹. On to G13C C50U, for which, in the data set with glucosamine-6-phosphate [1], the “self-cleavage kobs at 40 uM GlcN6P” value was less than 1e-05 s⁻¹. Further, the “self-cleavage kobs at 640 uM GlcN6P” value in the data set with glucosamine-6-phosphate [5] was less than 1e-05 s⁻¹. In addition, the “self-cleavage kobs at 160 uM GlcN6P” value in the data set with glucosamine-6-phosphate [2] was less than 1e-05 s⁻¹. Besides, in the data set with glucosamine-6-phosphate [4], the “self-cleavage kobs at 2500 uM GlcN6P” value is less than 1e-05 s⁻¹. For the same variant, the “self-cleavage kobs at 10000 uM GlcN6P” value in the data set with glucosamine-6-phosphate [3] was less than 1e-05 s⁻¹.
